The values below come from article PMC12136788.

This is one part of the list.

The chains are these.
B1: chr1:58468927:58468928:-_ENSMUSG00000026034_ENSMUST00000148330|mus_mus|mus_mus_mus_hu_False|48_108 (ssRNA)
RNA: GGGAGUUCUACAGUCCGACGAUCAAUCUAUAAUUACGAUGUUCAUUACCUUAGCUAUGUACUUAAUGAACCAAAUUACCCAAACAACAUAAAAUGUGCAAUAUAAAAAUGUUAAGAAUUUACAAAGCUGUACAAAAUAACUUACAACAGAGGAUUGAGCAUCA
B2: chr7:130122267:130122268:+_ENSMUSG00000030779_ENSMUST00000098062|mus_mus|FALSE|FALSE (ssRNA)
RNA: GGGAGUUCUACAGUCCGACGAUCAUUUAUAUCCAUAUUCAACUGAACUGUCAUCAAAAUACAAUUUAUUUACAGUGGGUGCUAUGGUCAGUGGGUAUUCUAAGUGAGUUACGUCACUGAAACAUUAUAAAGGUAAAAGCAAUUCAACAGAGGAUUGAGCAUCA
B3: 44549034_44549984_1913_CDS_ENSG00000138078_ENST00000409411|human|control|control (ssRNA)
RNA: GGGAGUUCUACAGUCCGACGAUCAUAGCCUUCACCUGUGUCCUUAGCAUGCUCCGCGAUGGCUUCCUUGAGUUUCUCAGUAUAACUUACAAUUCCUUUCAGAGGUACCCGUUCAUCGUUUUCAUAUGCCGUUAUGUGAAUUGACAACAGAGGAUUGAGCAUCA
B4: chr1:163115580:163115581:-_ENSG00000143248_ENST00000313961|hu_hu|motif|central (ssRNA)
RNA: GGGAGUUCUACAGUCCGACGAUCUACAGUCACAUAGUUGCUUCACUUUCAAUAUUCUUAGGAAAUAACCAAAUAAAUGAGCGGCAAAUAUGAGAAACUGAGAGUGUGUGAAUGAAAGAGAGCAACAGAAGGAGGAAAUACAAGCAACAGAGGAUUGAGCAUCA
B5: chr2:203071830:203071831:-_ENSG00000116030_ENST00000392246|hu_mus|FALSE|FALSE (ssRNA)
RNA: GGGAGUUCUACAGUCCGACGAUCAGGGAGCUGAGGUCUGAUCACCAAAAAUCAGCACAACAAAAACAACCAAUAAUGAAUAUUGAACACUAGAAUUCAUAUGUUCUAAGAGAUGGAGUGCCAGUAUUCAAUUUUCAUUUUGAACAACAGAGGAUUGAGCAUCA
B6: chr9:59188957:59188958:-_ENSMUSG00000025235_ENSMUST00000026265|mus_hu|FALSE|FALSE (ssRNA)
RNA: GGGAGUUCUACAGUCCGACGAUCGGCCACCUGCUUGAGGUUAUCAGCACUCUGAGGACUAAGAACUGCACAUGUCUGGAAGAGUUCUAGGGAUUCUUGGAUAUUUCCUUCUAGGCGAAAUAUCAAUGCUUGGACAUAGAUAGCCAACAGAGGAUUGAGCAUCA
B7: chr7:141438946:141438947:+_ENSG00000106028_ENST00000265304|hu_mus|FALSE|FALSE (ssRNA)
RNA: GGGAGUUCUACAGUCCGACGAUCGACGAAAUACCUGUAACACAGGUCUUCGAAACAUGGCUUCUGUUUUUCUUACAACCUAAUCUUUAGGCUUUUCCUAAAGGAAAGAAAGAAAAGAGAAAAAUGAUAAAUCAAGAAACUACACAACAGAGGAUUGAGCAUCA
B8: chr13:95058138:95058139:+_ENSG00000183098_ENST00000377047|hu_hu|motif|central (ssRNA)
RNA: GGGAGUUCUACAGUCCGACGAUCAUUUCUCAUGUUAAAUUAGUCUGAAAAUCAUAUGACAUAGUAGUAUGAUGAUAAAAACGGGGAAGUACAACUUGAAUGAUAUUUUGACCACAUCCAUGCAGGGUGCUAACACUGUGACAUCAACAGAGGAUUGAGCAUCA
B9: chr6:74304526:74304527:-_ENSG00000119899_ENST00000355773|hu_mus|FALSE|FALSE (ssRNA)
RNA: GGGAGUUCUACAGUCCGACGAUCCAAGUUUAUCAGUGUGUGUGUGUGUGUGUGUGUCCAUUUCAGCUUCAUUUCCUAUGCCCUUACCUUAUAUCAUACUGCCUUUCCUGCAGCCUGAUAUGUGAACCCAGUAUACGGCCUGGCCAACAGAGGAUUGAGCAUCA
B10: 23377108_23377228_938_3pUTR_ENSMUSG00000026158_ENSMUST00000027343|mouse|control|control (ssRNA)
RNA: GGGAGUUCUACAGUCCGACGAUCUCCUGUCUCUAAUUGUAUAAACAAAGUACUCCAGAGCACUCUGCUUAAUAUUGGGAAUAGUAUUCUCCACUAGAGCCUCGUGAAGAAUGAAUUUUACCAGAGGAGAUUUAAAACUCUCGUCAACAGAGGAUUGAGCAUCA
B11: chr16:46990514:46990515:-_ENSG00000069345_ENST00000317089|hu_mus|FALSE|FALSE (ssRNA)
RNA: GGGAGUUCUACAGUCCGACGAUCCAAACCCAUUGUGUGCAAAGCCCAUUUUUCCAUGCAUCUAAAUGAUAGAUACAGGCUAUGAAUUCUUUAUUCUAUUUGUAGCAGCUUAUGCAGGUGCAGCCAAACACAAAGCUUCAGGACCAACAGAGGAUUGAGCAUCA
B12: chr8:35901500:35901501:-_ENSMUSG00000031529_ENSMUST00000033929|mus_mus|FALSE|FALSE (ssRNA)
RNA: GGGAGUUCUACAGUCCGACGAUCUAUAUAACAUGAUCUGUCUUUGUGUGUGGGACAGCCUGUUCCUCCUCCAAUUCCAUAAACAUACUGAUUGCUUUUUGAGGAGUUUUCAGCAAAGUAAAUUCCAGCUCCAAACAUCCCUCCCAACAGAGGAUUGAGCAUCA
B13: chr17:2203652:2203653:-_ENSG00000070366_ENST00000263073|hu_hu|motif|central (ssRNA)
RNA: GGGAGUUCUACAGUCCGACGAUCUCGUCCAGGCUGAUAGAUCUGCAGGUCGGGUUUCUUUGUUCUUUUGAUAAUUUUUAGACGGCGAUCCUCUUGUCCAGCAGUCCUAGGAAAGGAUUCUUGUCCCCGAUUAUUUUCUGGGUCCAACAGAGGAUUGAGCAUCA
B14: chr11:77336104:77336105:-_ENSG00000074201_ENST00000525064|hu_mus|hu_hu_hu_mus_False|98_98 (ssRNA)
RNA: GGGAGUUCUACAGUCCGACGAUCCUCACACAUUGCUGUGAACAUUGCCUCCAAUGCUGACUUAUCACUGGGCACAAAUCGAAAUUCAGAAAUGGGUUCAACAUCAUCAUUGUCUUCCUCAUCUUCAUCAGAGAGAGGUUCUUUCAACAGAGGAUUGAGCAUCA
B15: chr19:55172109:55172110:-_ENSMUSG00000024978_ENSMUST00000061856|mus_hu|motif|central (ssRNA)
RNA: GGGAGUUCUACAGUCCGACGAUCGUGUGCUUACAUCGACCAACACUGUAUUCUGAUGAAUGUGGCAGAUAAGAAACAUCGGUUGUACCAAGGGUCAGUGCAGAUUCAUCCAUGUCACAAAGUGUAAUUCCCAAAUCAUGUGCUCAACAGAGGAUUGAGCAUCA
B16: chr10:33214929:33214930:-_ENSG00000150093_ENST00000302278|hu_hu|hu_hu_hu_mus_True|38_98 (ssRNA)
RNA: GGGAGUUCUACAGUCCGACGAUCAACAAGUUCAUUGAAUACUUCUCCUCUGUCAGUAAGACUAAGCACAUUUUUGUAGCUAAAUGGGCUGGUGCAGUUCUGUUCACUUGUACAAGGAUUUCUUAGCUUUGCUGGGGUUGUGCUCAACAGAGGAUUGAGCAUCA
B17: chr9:107755404:107755405:-_ENSMUSG00000032582_ENSMUST00000035201|mus_mus|motif|central (ssRNA)
RNA: GGGAGUUCUACAGUCCGACGAUCCUCUAUAAUCCAUAGGAGUACCAUCUCCACCCCUGUAGUCCAUAGGUGGUCCUUCUCGGUCCCGAAAAUCCCCAGAAUGUAUGUCCCUGUUCCUGAAGUCCAACUGUGCUGAAUCUCUACCAACAGAGGAUUGAGCAUCA
B18: chr11:50199487:50199488:+_ENSMUSG00000007850_ENSMUST00000069304|mus_mus|FALSE|FALSE (ssRNA)
RNA: GGGAGUUCUACAGUCCGACGAUCGCUCAACAUUGAGCCUUCUUUGAGCGACGCCAAUGUUCACUUAAGAGCAGGCAUAAAACCACAAGGCUGGAUGGAUUGCAAAAUCUGUUAAACUGAGGGGUUUUUUAAAAAAUUUCUUUUCAACAGAGGAUUGAGCAUCA
B19: chr1:39494564:39494565:+_ENSG00000168653_ENST00000372967|hu_hu|hu_hu_hu_mus_True|78_98 (ssRNA)
RNA: GGGAGUUCUACAGUCCGACGAUCAUGCAUUCGCCUCAUCGUUUUCUACCGAAGCAAACACUCUACGAAGUCAUCGAACUCUAUCUUGCACUCCUUUUUCGCCCGGGUCCCACCGAUCCCGUGUGCACACUCUAUCCACUCUUUCAACAGAGGAUUGAGCAUCA
B20: chr11:97546686:97546687:+_ENSMUSG00000038437_ENSMUST00000044730|mus_mus|motif|central (ssRNA)
RNA: GGGAGUUCUACAGUCCGACGAUCUACGAACUGCCCUUCGUACAAAUAACAUCCGUUAUACAAAGAUACAAGACCCAGGCGGUGCACAAUUCCAGGCUUGGAGGUCGCAGGGGAACACCGUCUCUUGGGCUGAGGAUAUAAAGGCAACAGAGGAUUGAGCAUCA
B21: chr4:95690885:95690886:+_ENSMUSG00000028572_ENSMUST00000156910|mus_mus|mus_mus_mus_hu_False|28_38 (ssRNA)
RNA: GGGAGUUCUACAGUCCGACGAUCUUUAGAAAAUGUUAAAUACCAUGCUAAAAUAUUUUCAAAGGCUUAUUUUAUUUUACCAGAAGUCACAGGCAAGCAGACACCAUAAACAUACAAGAAAAUGAAACUCAACAAUAUAACUGUCAACAGAGGAUUGAGCAUCA
B22: chr4:21667751:21667752:+_ENSMUSG00000028252_ENSMUST00000108240|mus_hu|motif|central (ssRNA)
RNA: GGGAGUUCUACAGUCCGACGAUCUUCUAAUAUAUGAUUCAUCCUAUAAGGAAAUUCCUUUGGAAAGGCAUAUGAAAAUCGGGUUUUUAAUACAGAAGUAGCAGCAGCAAUCAAUCUUGUAUUUGAAACUACUCCAAAUUCCUCCAACAGAGGAUUGAGCAUCA

This assay concerns the target T1, UNK ZnF1-3 (human, UniProt Q9C0B0 31-174).
T1 sequence: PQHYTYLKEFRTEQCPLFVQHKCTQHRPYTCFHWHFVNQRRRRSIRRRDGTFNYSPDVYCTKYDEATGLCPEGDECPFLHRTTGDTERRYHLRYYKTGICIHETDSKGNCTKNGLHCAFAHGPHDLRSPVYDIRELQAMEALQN
Briefly: nsRBNS (natural sequence RNA bind-n-seq); RBNS binding buffer (assumed for nsRBNS): 25 mM Tris pH 7.5, 150 mM KCl, 3 mM MgCl2, 0.01% Triton X-100, 500 ug/ml BSA, 20 U/ml SUPERase-In, 4 C; UNK is unkempt and MSI1 is Musashi-1; names of the RNAs are library labels; protein concentration not given here; high values mean tight binding.
On to B1, for which the binding signal turned out to be 0.859 enrichment R. B2 displayed a binding signal of 1.75 enrichment R. Under B3 stands 0.742 enrichment R. Under B4 stands 1.59 enrichment R; under B5, 1.14 enrichment R; under B6, 1.49 enrichment R. Under B7 stands 0.551 enrichment R. B8 gave a binding signal of 1.12 enrichment R.

Take B9: the binding signal worked out at 0.708 enrichment R. Under B10 stands 0.808 enrichment R; under B11, 1.35 enrichment R. Molecule B12 yielded a binding signal of 1.03 enrichment R.

With B13, the binding signal was 0.875 enrichment R. Under B14 stands 0.863 enrichment R; under B15, 0.718 enrichment R.

Molecule B16 showed a binding signal of 0.715 enrichment R. Under B17 stands 1.05 enrichment R; under B18, 2.25 enrichment R; under B19, 0.678 enrichment R. B20: the binding signal was found to be 0.853 enrichment R. Under B21 stands 2.01 enrichment R; under B22, 0.883 enrichment R.
